# Assay results taken from the supplement of paper PMC4166925.
# ± gives the standard deviation of the averaged measurements. The full ranking holds about 33,000 sequences; the median of “E-score (dimensionless, -0.5 to 0.5)” is about -0.046, and the highest 2% start at about 0.36. This is one part of the list.
# Test system: T1, SpTbr T-box DNA-binding domain (GST fusion)
# T1 sequence: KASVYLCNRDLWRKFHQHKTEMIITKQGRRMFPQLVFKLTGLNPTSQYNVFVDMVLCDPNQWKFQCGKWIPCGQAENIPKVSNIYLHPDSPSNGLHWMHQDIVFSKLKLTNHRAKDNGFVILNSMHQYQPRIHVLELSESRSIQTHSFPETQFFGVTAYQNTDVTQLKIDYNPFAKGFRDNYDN
# Assay: PBM E-score of 8-mer (E-score (dimensionless, -0.5 to 0.5)); Tbr is Tbrain of the sea star Patiria miniata (Pm) or the sea urchin Strongylocentrotus purpuratus (Sp); higher = stronger binding preference; most listed sequences are background and not binding sites
# Details: the construct has about 5 more residues each side
# How it was run: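 Using the Universal PBM Analysis Suite, every ungapped 8-mer received an enrichment E-score averaged over duplicate arrays. Probe intensities came from double-stranded Universal Agilent oligonucleotide arrays incubated with 200 nM GST-fused Tbr T-box DNA-binding domain in PBS (pH 7.5). That protein was expressed in BL21 E. coli at 20 °C and purified by glutathione affinity chromatography.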
row,Sequence,PBM E-score of 8-mer
1,ACAGCTAC,0.108 ± 0.04
2,CTAATGTA,-0.28 ± 0.021
3,GAAGAAAC,-0.196 ± 0.0032
4,ATAACGCA,-0.0222 ± 0.013
5,GTAGGTAA,-0.128 ± 0.056
6,TAACCACA,0.167 ± 0.053
7,CCGGAAAG,-0.151 ± 0.038
8,CATCGCTA,0.135 ± 0.048
9,TGTAAACA,0.243 ± 0.039
10,CGGGAAAG,-0.00872 ± 0.011
11,ACGGTCAT,0.0584 ± 0.093
12,CTCTGACC,-0.241 ± 0.09
13,CTTCTGTC,-0.0503 ± 0.061
14,ACATGTAC,-0.00064 ± 0.073
15,CGCATTTC,-0.0386 ± 0.012
16,GCATACCA,-0.103 ± 0.054
17,ACCCCCGA,-0.0476 ± 0.045
18,ACCCATGA,-0.0657 ± 0.027
19,ACGGATGC,0.00571 ± 0.0064
20,TGGATCAA,-0.0374 ± 0.024
21,CCAAATCA,0.12 ± 0.1
22,GGACGTAA,-0.209 ± 0.032

row,Sequence,PBM E-score of 8-mer
1,GGGAACTA,-0.00949 ± 0.0028
2,CACGGAGC,-0.000135 ± 0.075
3,GGCTCCAA,-0.117 ± 0.034
4,AGAGTGGC,0.0326 ± 0.028
5,GATGAAGA,-0.0216 ± 0.014
6,GAGCCCGC,0.0327 ± 0.056
7,ATCGCATC,0.0664 ± 0.073
8,ATAGACCC,-0.277 ± 0.035
9,CAGTCGAC,0.00736 ± 0.014
10,AGTCTGTA,-0.109 ± 0.034
11,TCGCGGCA,0.194 ± 0.015
12,CCTACGGC,-0.186 ± 0.0078
13,CACGACTG,0.0294 ± 0.028
14,ATGCGATC,0.0297 ± 0.01
15,CATTAATC,-0.116 ± 0.045
16,GGAGGTCA,0.0169 ± 0.067
17,AGGACCAT,-0.341 ± 0.0014
18,GATCATAA,-0.138 ± 0.03
19,AAACATAC,-0.224 ± 0.0063
20,AGTCCTAC,-0.00302 ± 0.063
21,CGAGCTAC,-0.0388 ± 0.1
22,TACGGTCA,-0.0405 ± 0.015

row,Sequence,PBM E-score of 8-mer
1,AGGTTGCG,0.267 ± 0.044
2,ACCGTTGC,-0.0131 ± 0.028
3,CTAATAGC,0.0334 ± 0.069
4,AAATAGGC,-0.127 ± 0.036
5,ATGTCAAG,-0.0933 ± 0.071
6,AGTATGGG,-0.144 ± 0.045
7,TAAATGGA,-0.18 ± 0.046
8,GAAGACCC,-0.12 ± 0.057
9,CCCAAATA,-0.169 ± 0.068
10,GAGGCGCA,0.0748 ± 0.024
11,AAGTGCGC,0.194 ± 0.018
12,GTATAAAC,-0.0298 ± 0.051
13,GGAGCCTA,-0.123 ± 0.051
14,CATAAGAA,-0.0902 ± 0.077
15,GCGAACCA,0.248 ± 0.022
16,CCACGCAG,-0.152 ± 0.074
17,ATGAAAGG,-0.0822 ± 0.15
18,AATTATAA,-0.131 ± 0.032
19,TACCTTGA,0.01 ± 0.065
20,ATACCGAT,-0.211 ± 0.071
21,TAAGAAGA,-0.175 ± 0.13
22,AAAGATGC,-0.0528 ± 0.083

row,Sequence,PBM E-score of 8-mer
1,ACCATACT,-0.187 ± 0.0022
2,CGACTCCC,-0.0168 ± 0.035
3,GGACACCC,0.185 ± 0.023
4,GCAAGCGC,-0.00549 ± 0.071
5,AAATGAGT,-0.0358 ± 0.043
6,ACGAAAGT,0.00641 ± 0.0039
7,AACCAATC,-0.211 ± 0.064
8,AAGCGAGC,0.194 ± 0.075
9,TGGACCCA,-0.149 ± 0.01
10,ATACATAG,-0.238 ± 0.11
11,CATGACAG,-0.0894 ± 0.019
12,AACTTCAA,-0.0508 ± 0.031
13,ATAAAACC,-0.0786 ± 0.065
14,CTACGCGA,0.0131 ± 0.01
15,ATAAGAGA,-0.127 ± 0.047
16,GTGAAATA,0.176 ± 0.084
17,GAACCTGA,0.00609 ± 0.054
18,CAGCTTAA,-0.0965 ± 0.041
19,GGACAACA,0.0909 ± 0.012
20,ACCTTCGA,0.0873 ± 0.056
